In ChEMBL document CHEMBL1154674, “Synthesis and evaluation of three 18F-labeled aminophenylbenzothiazoles as amyloid imaging agents” (J Med Chem, 2009):
Further values from the same series stand in other lists. One block for each molecule: values may come before it.

Experiments:
Type in all cases: ADME, organism-based, Macaca mulatta
[1] = Drug level in normal rhesus monkey pons assessed as standard uptake value at 81.2 MBq, iv after 57.5 mins by microPET; conditions: in vivo
[2] = Drug level in normal rhesus monkey parietal cortex assessed as standard uptake value at 81.2 MBq, iv after 1.5 mins by microPET; conditions: in vivo, 0.025 h
[3] = Drug level in normal rhesus monkey parietal cortex assessed as standard uptake value at 81.2 MBq, iv after 4.5 mins by microPET; conditions: in vivo, 0.075 h
[4] = Drug level in normal rhesus monkey white matter assessed as standard uptake value at 81.2 MBq, iv after 95 mins by microPET; conditions: in vivo
[5] = Drug level in normal rhesus monkey pons assessed as standard uptake value at 81.2 MBq, iv after 27.5 mins by microPET; conditions: in vivo
[6] = Drug level in normal rhesus monkey pons assessed as standard uptake value at 81.2 MBq, iv after 10 mins by microPET; conditions: in vivo
[7] = Drug level in normal rhesus monkey parietal cortex assessed as standard uptake value at 81.2 MBq, iv after 10 mins by microPET; conditions: in vivo
[8] = Drug level in normal rhesus monkey cerebellum assessed as standard uptake value at 81.2 MBq, iv after 42.5 mins by microPET; conditions: in vivo
[9] = Drug level in normal rhesus monkey thalamus assessed as standard uptake value at 81.2 MBq, iv after 85 mins by microPET; conditions: in vivo
[10] = Drug level in normal rhesus monkey thalamus assessed as standard uptake value at 81.2 MBq, iv after 105 mins by microPET; conditions: in vivo, 1.75 h
[11] = Drug level in normal rhesus monkey white matter assessed as standard uptake value at 81.2 MBq, iv after 12 mins by microPET; conditions: in vivo, 0.2 h
[12] = Drug level in normal rhesus monkey frontal cortex assessed as standard uptake value at 81.2 MBq, iv after 135 mins by microPET; conditions: in vivo, 2.25 h
[13] = Drug level in normal rhesus monkey pons assessed as standard uptake value at 81.2 MBq, iv after 52.5 mins by microPET; conditions: in vivo, 0.875 h
[14] = Drug level in normal rhesus monkey frontal cortex assessed as standard uptake value at 96.3 MBq, iv after 155 mins by microPET; conditions: in vivo
[15] = Drug level in normal rhesus monkey frontal cortex assessed as standard uptake value at 96.3 MBq, iv after 165 mins by microPET; conditions: in vivo, 2.75 h
[16] = Drug level in normal rhesus monkey white matter assessed as standard uptake value at 96.3 MBq, iv after 135 mins by microPET; conditions: in vivo, 2.25 h
[17] = Drug level in normal rhesus monkey parietal cortex assessed as standard uptake value at 96.3 MBq, iv after 52.5 mins by microPET; conditions: in vivo, 0.875 h
[18] = Drug level in normal rhesus monkey frontal cortex assessed as standard uptake value at 96.3 MBq, iv after 52.5 mins by microPET; conditions: in vivo, 0.875 h
[19] = Drug level in normal rhesus monkey cerebellum assessed as standard uptake value at 96.3 MBq, iv after 12 mins by microPET; conditions: in vivo, 0.2 h
[20] = Drug level in normal rhesus monkey cerebellum assessed as standard uptake value at 96.3 MBq, iv after 115 mins by microPET; conditions: in vivo
[21] = Drug level in normal rhesus monkey white matter assessed as standard uptake value at 96.3 MBq, iv after 175 mins by microPET; conditions: in vivo
[22] = Drug level in normal rhesus monkey pons assessed as standard uptake value at 96.3 MBq, iv after 2.5 mins by microPET; conditions: in vivo
[23] = Drug level in normal rhesus monkey pons assessed as standard uptake value at 96.3 MBq, iv after 175 mins by microPET; conditions: in vivo
[24] = Drug level in normal rhesus monkey parietal cortex assessed as standard uptake value at 96.3 MBq, iv after 17.5 mins by microPET; conditions: in vivo
[25] = Drug level in normal rhesus monkey parietal cortex assessed as standard uptake value at 96.3 MBq, iv after 85 mins by microPET; conditions: in vivo
[26] = Drug level in normal rhesus monkey white matter assessed as standard uptake value at 96.3 MBq, iv after 65 mins by microPET; conditions: in vivo
[27] = Drug level in normal rhesus monkey frontal cortex assessed as standard uptake value at 96.3 MBq, iv after 105 mins by microPET; conditions: in vivo, 1.75 h
[28] = Drug level in normal rhesus monkey cerebellum assessed as standard uptake value at 96.3 MBq, iv after 27.5 mins by microPET; conditions: in vivo
[29] = Drug level in normal rhesus monkey white matter assessed as standard uptake value at 96.3 MBq, iv after 6 mins by microPET; conditions: in vivo, 0.1 h
[30] = Drug level in normal rhesus monkey frontal cortex assessed as standard uptake value at 96.3 MBq, iv after 0.5 mins by microPET; conditions: in vivo
[31] = Drug level in normal rhesus monkey white matter assessed as standard uptake value at 109.4 MBq, iv after 37.5 mins by microPET; conditions: in vivo, 0.625 h
[32] = Drug level in normal rhesus monkey thalamus assessed as standard uptake value at 109.4 MBq, iv after 6.5 mins by microPET; conditions: in vivo
[33] = Drug level in normal rhesus monkey cerebellum assessed as standard uptake value at 109.4 MBq, iv after 42.5 mins by microPET; conditions: in vivo
[34] = Drug level in normal rhesus monkey parietal cortex assessed as standard uptake value at 109.4 MBq, iv after 12.5 mins by microPET; conditions: in vivo
[35] = Drug level in normal rhesus monkey white matter assessed as standard uptake value at 109.4 MBq, iv after 123 mins by microPET; conditions: in vivo, 2.05 h
[36] = Drug level in normal rhesus monkey cerebellum assessed as standard uptake value at 109.4 MBq, iv after 0.125 mins by microPET; conditions: in vivo, 7 s
[37] = Drug level in normal rhesus monkey parietal cortex assessed as standard uptake value at 109.4 MBq, iv after 47.5 mins by microPET; conditions: in vivo
[38] = Drug level in normal rhesus monkey cerebellum assessed as standard uptake value at 109.4 MBq, iv after 1.5 mins by microPET; conditions: in vivo, 0.025 h
[39] = Drug level in normal rhesus monkey thalamus assessed as standard uptake value at 109.4 MBq, iv after 75 mins by microPET; conditions: in vivo, 1.25 h
[40] = Drug level in normal rhesus monkey parietal cortex assessed as standard uptake value at 109.4 MBq, iv after 75 mins by microPET; conditions: in vivo, 1.25 h
[41] = Drug level in normal rhesus monkey frontal cortex assessed as standard uptake value at 109.4 MBq, iv after 111 mins by microPET; conditions: in vivo
[42] = Drug level in normal rhesus monkey frontal cortex assessed as standard uptake value at 109.4 MBq, iv after 52.5 mins by microPET; conditions: in vivo, 0.875 h
[43] = Drug level in normal rhesus monkey cerebellum assessed as standard uptake value at 109.4 MBq, iv after 0.375 mins by microPET; conditions: in vivo, 22 s
[44] = Drug level in normal rhesus monkey frontal cortex assessed as standard uptake value at 109.4 MBq, iv after 0.375 mins by microPET; conditions: in vivo, 22 s

SUV [1]: 5.866
SUV [2]: 3.304
SUV [3]: 4.922
SUV [4]: 3.97
SUV [5]: 5.233
SUV [6]: 5.455
SUV [7]: 5.056
SUV [8]: 2.237
SUV [9]: 5.308
SUV [10]: 5.136
SUV [11]: 3.656
SUV [12]: 4.473
SUV [13]: 5.634
SMILES: CNc1ccc2nc(-c3ccc([18F])cc3)sc2c1

SUV [14]: 1.52
SUV [15]: 1.45
SUV [16]: 1.57
SUV [17]: 1.69
SUV [18]: 2.05
SUV [19]: 1.64
SUV [20]: 0.95
SUV [21]: 1.59
SUV [22]: 1.12
SUV [23]: 1.87
SUV [24]: 2.05
SUV [25]: 1.44
SUV [26]: 1.44
SUV [27]: 1.51
SUV [28]: 1.47
SUV [29]: 1.21
SUV [30]: 0.62
SMILES: CN(C)c1ccc2nc(-c3ccc([18F])cc3)sc2c1

SUV [31]: 3.27
SUV [32]: 5.27
SUV [33]: 3.59
SUV [34]: 5.17
SUV [35]: 3.93
SUV [36]: 0.03
SUV [37]: 4.52
SUV [38]: 4.76
SUV [39]: 5.16
SUV [40]: 3.95
SUV [41]: 4.22
SUV [42]: 4.72
SUV [43]: 0.6
SUV [44]: 0.08
SMILES: Nc1ccc2nc(-c3ccc([18F])cc3)sc2c1
